Target: T1, human GLP-1 receptor (Homo sapiens, UniProt P43220)
T1 construct: expressed in transfected cells; host or cells: HEK-293 cell line
Assay: cAMP response (HTRF) in HEK-293 cell line stably expressing human GLP-1 receptor
Format: cell-based
Conditions: for EC50: cAMP response, HEK-293 cells stably expressing human GLP-1 receptor; for Ratio GLP-1R agonistic activity: native GLP-1(7-36)/tested GLP-1R agonist: ratio X = activity X-fold reduced versus native GLP-1(7-36), HEK-293, cAMP
Method: The cAMP content of cells was determined using a kit from Cisbio Corp. (cat. no. 62AM4PEC) based on HTRF (Homogenous Time Resolved Fluorescence). For preparation, cells were split into T175 culture flasks and grown overnight to near confluence in medium (DMEM/10% FBS). Medium was then removed and cells washed with PBS lacking calcium and magnesium, followed by proteinase treatment with accutase (Sigma-Aldrich cat. no. A6964). Detached cells were washed and resuspended in assay buffer (1x HBSS; 20 mM HEPES, 0.1% BSA, 2 mM IBMX) and cellular density determined. They were then diluted to 4×10^5 cells/mL and 25 μL-aliquots dispensed into the wells of 96-well plates. For measurement, 25 μL of test compound in assay buffer was added to the wells, followed by incubation for 30 minutes at room temperature. After addition of HTRF reagents diluted in lysis buffer (kit components), the plates were incubated for 1 h, followed by measurement of the fluorescence ratio at 665/620 nm.

T1 sequence (P43220 24-463): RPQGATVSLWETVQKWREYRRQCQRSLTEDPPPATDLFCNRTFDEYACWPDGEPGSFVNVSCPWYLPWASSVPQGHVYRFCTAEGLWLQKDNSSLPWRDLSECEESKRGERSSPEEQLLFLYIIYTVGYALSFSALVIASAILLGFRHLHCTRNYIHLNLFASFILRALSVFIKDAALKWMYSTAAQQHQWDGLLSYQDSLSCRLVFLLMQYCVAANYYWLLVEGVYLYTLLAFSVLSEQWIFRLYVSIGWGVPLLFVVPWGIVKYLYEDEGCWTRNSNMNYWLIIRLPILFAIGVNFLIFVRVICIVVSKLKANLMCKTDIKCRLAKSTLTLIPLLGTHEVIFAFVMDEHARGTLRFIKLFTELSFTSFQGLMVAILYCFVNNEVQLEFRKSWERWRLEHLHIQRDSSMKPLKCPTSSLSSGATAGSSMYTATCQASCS

| Molecule | EC50 [pM] | Ratio GLP-1R agonistic activity: native GLP-1(7-36)/tested GLP-1R agonist |
| --- | --- | --- |
| 30 (protein, GLP1(7-36) A8G,V16L,S18K,Y19Q,E21D,G22E,Q23E,A25V,K26Q,E27L,A30E,V33L,K34A,G 35T,R36G,insPSSGEPPPES_[19GS]_IgG4 Fc_variant [7GS]_FGF21(His29-Ser209)Q55C,N149C,G198Y) HGEGTFTSDLSKQLEEEAVQLFIEWLLATGPSSGEPPPESGGGGGGGSGGGGSGGGGSA[sequence of human IgG4 Fc with changes not given]GGGSGSAHPIPDSSPLLQFGGQVRQRYLYTDDACQTEAHLEIREDGTVGGAADQSPESLLQLKALKPGVIQILGVKTSRFLCQRPDGALYGSLHFDPEACSFRELLLEDGYNVYQSEAHGLPLHLPGCKSPHRDPAPRGPARFLPLPGLPPAPPEPPGILAPQPPDVGSSDPLSMVYPSQGRSPSYAS | 173 | 224.6 |
| 32 (protein, GLP1(7-36) A8G,V16L,S18K,Y19Q,G22E,Q23E,A25V,K26Q,E27L,A30E,V33L,K34A,G35T,R 36G_[19GS]_IgG4 Fc_variant [7GS] FGF21(His29-Ser209)Q55C,N149C,G198Y) HGEGTFTSDLSKQLEEEAVQLFIEWLLATGGGGGGGGSGGGGSGGGGSA[sequence of human IgG4 Fc with changes not given]GGGSGSAHPIPDSSPLLQFGGQVRQRYLYTDDACQTEAHLEIREDGTVGGAADQSPESLLQLKALKPGVIQILGVKTSRFLCQRPDGALYGSLHFDPEACSFRELLLEDGYNVYQSEAHGLPLHLPGCKSPHRDPAPRGPARFLPLPGLPPAPPEPPGILAPQPPDVGSSDPLSMVYPSQGRSPSYAS | 63 | 81.9 |
| 26 (protein, GLP1(7-36) A8G,V16L,S18I,Y19Q,E21D,G22E,Q23E,A25V,K26R,E27L,A30E,V33L,K34A,G 35T,R36G,insPVSGAPPPS_[19GS]_IgG4 Fc_variant [7GS]_FGF21(His29-Ser209)Q55C,P147C,delP199) HGEGTFTSDLSIQLDEEAVRLFIEWLLATGPVSGAPPPSGGGGGGGSGGGGSGGGGSA[sequence of human IgG4 Fc with changes not given]GGGSGSAHPIPDSSPLLQFGGQVRQRYLYTDDACQTEAHLEIREDGTVGGAADQSPESLLQLKALKPGVIQILGVKTSRFLCQRPDGALYGSLHFDPEACSFRELLLEDGYNVYQSEAHGLPLHLCGNKSPHRDPAPRGPARFLPLPGLPPAPPEPPGILAPQPPDVGSSDPLSMVGSQGRSPSYAS | 60.5 | 78.6 |
| 27 (protein, GLP1(7-36) A8G,V16L,S18I,Y19Q,E21D,G22E,Q23E,A25V,K26R,E27L,A30E,V33E,K34A,G 35T,R36G,insPVSGAPPPS_[19GS]_IgG4 Fc_variant [7GS]_FGF21(His29-Ser209)Q55C,N149C,delP199) HGEGTFTSDLSIQLDEEAVRLFIEWLEATGPVSGAPPPSGGGGGGGSGGGGSGGGGSA[sequence of human IgG4 Fc with changes not given]GGGSGSAHPIPDSSPLLQFGGQVRQRYLYTDDACQTEAHLEIREDGTVGGAADQSPESLLQLKALKPGVIQILGVKTSRFLCQRPDGALYGSLHFDPEACSFRELLLEDGYNVYQSEAHGLPLHLPGCKSPHRDPAPRGPARFLPLPGLPPAPPEPPGILAPQPPDVGSSDPLSMVGSQGRSPSYAS | 675 | 877.1 |

Results, then the molecule that gave them:

| EC50 [pM] | Ratio GLP-1R agonistic activity: native GLP-1(7-36)/tested GLP-1R agonist | Molecule |
| --- | --- | --- |
| 126 | 163.6 | 33 (protein, GLP1(7-36) A8G,V16L,S18K,Y19Q,G22E,Q23E,A25V,K26Q,E27L,A30E,V33L,K34A,G35T,R 36G,insPSSGEPPPE_[19GS]_IgG4 Fc_variant [7GS]_FGF21(His29-Ser209)Q55C,N149C,G198Y) HGEGTFTSDLSKQLEEEAVQLFIEWLLATGPSSGEPPPEGGGGGGGSGGGGSGGGGSA[sequence of human IgG4 Fc with changes not given]GGGSGSAHPIPDSSPLLQFGGQVRQRYLYTDDACQTEAHLEIREDGTVGGAADQSPESLLQLKALKPGVIQILGVKTSRFLCQRPDGALYGSLHFDPEACSFRELLLEDGYNVYQSEAHGLPLHLPGCKSPHRDPAPRGPARFLPLPGLPPAPPEPPGILAPQPPDVGSSDPLSMVYPSQGRSPSYAS |
| 14.6 | 18.9 | 36 (protein, GLP1(7-36) insG,A8G,V16L,S18I,Y19Q,G22E,Q23E,A25V,K26R,E27L,A30E,V33L,K34A,R 36G,insPKKQRLS_[19GS]_IgG4 Fc_variant [7GS]_FGF21(His29-Ser209)Q55C,N149C,delP199) GHGEGTFTSDLSIQLEEEAVRLFIEWLLAGGPKKQRLSGGGGGGGSGGGGSGGGGSA[sequence of human IgG4 Fc with changes not given]GGGSGSAHPIPDSSPLLQFGGQVRQRYLYTDDACQTEAHLEIREDGTVGGAADQSPESLLQLKALKPGVIQILGVKTSRFLCQRPDGALYGSLHFDPEACSFRELLLEDGYNVYQSEAHGLPLHLPGCKSPHRDPAPRGPARFLPLPGLPPAPPEPPGILAPQPPDVGSSDPLSMVGSQGRSPSYAS |

From US20240325499A1, “FGF21 COMPOUND / GLP-1R AGONIST COMBINATIONS WITH OPTIMIZED ACTIVITY RATIO” (SANOFI, priority 2018, published 2024)
